The values that follow come from article PMC4336329 (PLoS ONE, 2015).

Molecules are shown by their SMILES. Hit rate of the full screen: of about 310,000 compounds, about 14,000 (4.5%) showed an effect of 50% or more. The effect is printed as a negative number. This is one part of the list.
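Also: peak tail current of the secondary pulse compared with the same well before compound.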

The target of the experiment is human ether-à-go-go-related gene (hERG) potassium channel (human, UniProt Q12809). The experiment in a line: primary screen, population patch clamp on CHO cells stably expressing hERG.
human ether-à-go-go-related gene (hERG) potassium channel, sequence (Q12809 whole entry, looked up): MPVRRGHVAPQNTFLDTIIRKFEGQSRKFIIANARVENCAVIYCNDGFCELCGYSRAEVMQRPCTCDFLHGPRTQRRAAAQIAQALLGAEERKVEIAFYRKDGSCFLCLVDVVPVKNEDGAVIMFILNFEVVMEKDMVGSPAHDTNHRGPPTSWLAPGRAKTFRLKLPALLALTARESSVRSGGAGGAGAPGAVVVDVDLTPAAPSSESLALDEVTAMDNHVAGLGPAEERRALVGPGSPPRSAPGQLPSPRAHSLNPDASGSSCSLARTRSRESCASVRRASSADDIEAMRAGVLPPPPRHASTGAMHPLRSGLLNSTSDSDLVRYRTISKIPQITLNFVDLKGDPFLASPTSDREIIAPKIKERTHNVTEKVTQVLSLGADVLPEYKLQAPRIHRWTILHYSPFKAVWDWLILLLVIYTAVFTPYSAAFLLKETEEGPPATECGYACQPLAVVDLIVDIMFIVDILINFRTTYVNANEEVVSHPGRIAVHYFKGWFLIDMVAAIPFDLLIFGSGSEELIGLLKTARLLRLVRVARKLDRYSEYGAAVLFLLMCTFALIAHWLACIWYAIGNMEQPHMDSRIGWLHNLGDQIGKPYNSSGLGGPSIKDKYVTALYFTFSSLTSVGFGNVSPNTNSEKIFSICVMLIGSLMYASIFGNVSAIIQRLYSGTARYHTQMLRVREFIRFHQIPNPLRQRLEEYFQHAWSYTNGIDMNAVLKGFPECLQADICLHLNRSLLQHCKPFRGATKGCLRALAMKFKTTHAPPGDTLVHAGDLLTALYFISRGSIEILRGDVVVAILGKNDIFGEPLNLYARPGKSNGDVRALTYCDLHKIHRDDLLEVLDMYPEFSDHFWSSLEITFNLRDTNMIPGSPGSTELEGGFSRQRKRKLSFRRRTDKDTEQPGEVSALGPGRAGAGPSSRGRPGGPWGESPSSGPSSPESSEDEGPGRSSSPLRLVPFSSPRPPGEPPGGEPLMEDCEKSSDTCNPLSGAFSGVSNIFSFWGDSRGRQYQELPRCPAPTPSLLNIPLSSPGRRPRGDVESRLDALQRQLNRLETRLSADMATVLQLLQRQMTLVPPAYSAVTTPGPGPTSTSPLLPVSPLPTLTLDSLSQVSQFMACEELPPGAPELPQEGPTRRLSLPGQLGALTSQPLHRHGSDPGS
For `CCCCOc1ccccc1C1C(C(=O)OC)=CN(CC)C=C1C(=O)OC`, the “hERG current change (%, negative = inhibition) at 10uM” value is -16%.

Consider `CC(OC(=O)CCCNC(=O)c1ccc(Cl)cc1)C(=O)N(C)Cc1ccccc1` (stereo not shown), for which the “hERG current change (%, negative = inhibition) at 10uM” value is given as -54.2%.

Take `CC(C)(C)c1ccc(Oc2ccc(NC(=O)CCCC(=O)O)cn2)cc1`: the “hERG current change (%, negative = inhibition) at 10uM” value was 12%.

On to `COC(=O)c1c(NC(=O)CN2C(=O)NC3(CCc4ccccc4C3)C2=O)sc2c1CCCCC2` (stereo not shown), for which the “hERG current change (%, negative = inhibition) at 10uM” value is 21.5%.

On to `Cc1occc1C(=O)NNC(=S)Nc1ccccc1C(F)(F)F`, for which the “hERG current change (%, negative = inhibition) at 10uM” value is recorded as 6.27%.

In the case of `O=C(COC(=O)/C=C/c1ccc(F)cc1)Nc1ccc2[nH]c(=O)[nH]c2c1`, the “hERG current change (%, negative = inhibition) at 10uM” value was 3.95%.

With `CCCCCn1nc(C(=O)N2CCc3ccccc32)c2ccccc2c1=O`, the “hERG current change (%, negative = inhibition) at 10uM” value is listed as -3.43%.

Consider `CN1CCN(CCCNCc2cn(CCC#N)c3ccccc23)CC1.O=C(O)C(=O)O`, for which the “hERG current change (%, negative = inhibition) at 10uM” value is reported as 9.43%.

Turning to `COc1ccc2[nH]c(C)c(CCN(Cc3cccs3)C(=S)Nc3ccccc3)c2c1`, the “hERG current change (%, negative = inhibition) at 10uM” value is 6.86%.

`Cc1cccc(NC(=S)N/N=C/c2cccc(O)c2)c1C`: the “hERG current change (%, negative = inhibition) at 10uM” value was -1.2%.

For `CCOc1cc(C=C2C(=O)NC(=O)NC2=O)cc([N+](=O)[O-])c1O`, the “hERG current change (%, negative = inhibition) at 10uM” value was 23.9%.

As to `O=[N+]([O-])c1ccc(N2CCN(Cc3ccc(Br)o3)CC2)cc1`, the “hERG current change (%, negative = inhibition) at 10uM” value is reported as -65.1%.

For the compound `O=C(NCc1ccccc1)C(c1c(F)cccc1Cl)N(C(=O)c1csnn1)C1CC1` (stereo not shown), the “hERG current change (%, negative = inhibition) at 10uM” value is on record as 1.08%.

Consider `O=C(N/N=C/c1ccccc1C(F)(F)F)c1ccc2nc[nH]c2c1`, for which the “hERG current change (%, negative = inhibition) at 10uM” value came to 12.6%.

With `C=CCn1c(NC(=O)c2ccccc2)nc2ccccc21`, the “hERG current change (%, negative = inhibition) at 10uM” value is listed as 13%.

Turning to `O[C@H]1COC2C1OC[C@@H]2O` (stereo partly shown), the “hERG current change (%, negative = inhibition) at 10uM” value is listed as -2.19%.

As to `C/C(=C\C(=O)c1ccc(Br)cc1)NCc1ccc2c(c1)OCO2`, the “hERG current change (%, negative = inhibition) at 10uM” value turned out to be 3.29%.

Turning to `CCOC(=O)C1=C(C)Nc2ccccc2N=C1NC(=O)c1ccc(Cl)c(S(=O)(=O)N2CCCC2)c1`, the “hERG current change (%, negative = inhibition) at 10uM” value is reported as 0.0828%.

For the compound `C=CCn1c(C)cc(C2=NNC(=NCC)SC2)c1C.Cl`, the “hERG current change (%, negative = inhibition) at 10uM” value was -38%.

Consider `COc1ccc(-n2nc(C(=O)NCC(=O)Nc3cccc(Cl)c3)c3ccccc3c2=O)cc1OC`, for which the “hERG current change (%, negative = inhibition) at 10uM” value was 16.2%.

Turning to `Cc1ccc(-n2c(O)c(C=NCc3cccnc3)c(=O)[nH]c2=O)cc1C`, the “hERG current change (%, negative = inhibition) at 10uM” value is given as 6.07%.

In the case of `C/C(=N/NC(=O)CCC(=O)Nc1ccc(Br)cc1)c1ccc(Br)cc1`, the “hERG current change (%, negative = inhibition) at 10uM” value is 12.7%.

Regarding `C/C(Cn1nc([N+](=O)[O-])cc1C)=N\NC(=O)COc1ccc(Cl)cc1Cl`, the “hERG current change (%, negative = inhibition) at 10uM” value is reported as -66.3%.

On to `CC(=O)C1=C(O)C(=O)OC1c1ccc(C)cc1` (stereo not shown), for which the “hERG current change (%, negative = inhibition) at 10uM” value turned out to be 28.2%.

In the case of `COc1cccc(NC(=O)CN(C)C(=O)c2ccc3ccccc3c2)c1`, the “hERG current change (%, negative = inhibition) at 10uM” value amounted to 1.99%.

Take `COc1ccc(Cc2n[nH]c(=S)n2NC(=O)Nc2ccc(Cl)c(Cl)c2)cc1`: the “hERG current change (%, negative = inhibition) at 10uM” value was 16.3%.

Take `COc1ccc2c(c1)[nH]c1c(N3CCSCC3)ncnc12`: the “hERG current change (%, negative = inhibition) at 10uM” value is -20%.

As to `COc1cccc(/C=N/NC(=O)C(=O)N/N=C/c2cccc(OC)c2OC)c1OC`, the “hERG current change (%, negative = inhibition) at 10uM” value amounted to 4.36%.

Regarding `O=C(CCN1C(=O)/C(=C\C=C\c2ccccc2)SC1=S)Nc1ccccc1C(=O)O`, the “hERG current change (%, negative = inhibition) at 10uM” value is reported as -0.0728%.

Regarding `CCCn1c(SCC(=O)Nc2cc(Cl)ccc2OC)nc(O)cc1=O`, the “hERG current change (%, negative = inhibition) at 10uM” value is on record as -5.33%.

Take `Nc1cc(-c2ccccc2)nn1S(=O)(=O)c1ccc(F)cc1`: the “hERG current change (%, negative = inhibition) at 10uM” value is listed as -18.2%.

On to `CN(C)c1nnnn1-c1ccc(Cl)cc1`, for which the “hERG current change (%, negative = inhibition) at 10uM” value is on record as -5.09%.

In the case of `COc1ccc(S(=O)(=O)NCc2ccccn2)cc1NC(=O)c1ccccc1`, the “hERG current change (%, negative = inhibition) at 10uM” value came out at 8.45%.

In the case of `COc1ccc(S(=O)(=O)N2CCC(C(=O)NCc3ccccn3)CC2)cc1OC`, the “hERG current change (%, negative = inhibition) at 10uM” value is -5.84%.

For the compound `O=C(COC(=O)c1ccc([N+](=O)[O-])s1)Nc1ncc(C(F)(F)F)cc1Cl`, the “hERG current change (%, negative = inhibition) at 10uM” value was -63%.

As to `O=C(Cn1nnc(-c2ccccc2)n1)NC1CCS(=O)(=O)C1` (stereo not shown), the “hERG current change (%, negative = inhibition) at 10uM” value is listed as 10.9%.

As for `COc1ccccc1C(=O)NCCC(=O)N(C)CC(=O)Nc1ccc(C)cc1`, the “hERG current change (%, negative = inhibition) at 10uM” value was 7.91%.

For `COc1ccc(NS(=O)(=O)c2ccc(C)c(C(=O)N(C)CCc3ccc(OC)c(OC)c3)c2)cc1`, the “hERG current change (%, negative = inhibition) at 10uM” value was -13.7%.

`CCOc1ccc(CNc2nc3ccccc3n2CCN2CCOCC2)cc1.Cl`: the “hERG current change (%, negative = inhibition) at 10uM” value was -64.2%.

For `COc1ccc(OC)c(C(C)NC(=O)C(C)n2cc([N+](=O)[O-])cn2)c1` (stereo not shown), the “hERG current change (%, negative = inhibition) at 10uM” value was -2.64%.

In the case of `COCC(C)n1c(C)cc(C(=O)COC(=O)C2=NN(c3ccccc3)C(=O)CC2)c1C` (stereo not shown), the “hERG current change (%, negative = inhibition) at 10uM” value was found to be 7.87%.

With `COc1ccc(C)cc1NC(=O)NNC(=O)c1cc2ccccc2cc1O`, the “hERG current change (%, negative = inhibition) at 10uM” value is 12.1%.

For `C=CCn1c(Cc2cccs2)nnc1SCC(=O)NC1CC1`, the “hERG current change (%, negative = inhibition) at 10uM” value is recorded as 0.472%.

Take `N#C/C(=C/c1ccc(F)cc1)c1nnc(NC(=O)c2ccccc2)s1`: the “hERG current change (%, negative = inhibition) at 10uM” value is 11.5%.

Turning to `CC(C)(C)N=C1NC(=NC(C)(C)C)c2ccccc21`, the “hERG current change (%, negative = inhibition) at 10uM” value is listed as -36.8%.

For `COc1cc(/C=N/NC(=O)CC#N)cc(Br)c1O`, the “hERG current change (%, negative = inhibition) at 10uM” value turned out to be 4.29%.

On to `O=C(NCCOc1ccccc1)c1cc(C(=O)NCCOc2ccccc2)cc([N+](=O)[O-])c1`, for which the “hERG current change (%, negative = inhibition) at 10uM” value is on record as -15.2%.

`CCC1(c2ccc(F)cc2)NC(=O)N(CC(=O)NC2CC2)C1=O` (stereo not shown): the “hERG current change (%, negative = inhibition) at 10uM” value is 32.2%.

Consider `CC(=O)N1CCN(S(=O)(=O)c2cccc(C(=O)NNC(=O)Cn3ccc(C(F)(F)F)n3)c2)CC1`, for which the “hERG current change (%, negative = inhibition) at 10uM” value is 10.3%.

`Cc1cc(Br)ccc1NC(=O)CNC(=O)Cn1ncc(Cl)c(Cl)c1=O`: the “hERG current change (%, negative = inhibition) at 10uM” value was 3.98%.

`COc1ccc(OC)c2[nH]c(C(=O)N/N=C/c3ccccc3O)cc12`: the “hERG current change (%, negative = inhibition) at 10uM” value was 14.5%.

Consider `COc1cccc(CC(=O)NCCCSc2ccccc2)c1`, for which the “hERG current change (%, negative = inhibition) at 10uM” value is on record as -14.8%.

As for `CNCCCCOc1ccccc1-c1ccccc1.O=C(O)C(=O)O`, the “hERG current change (%, negative = inhibition) at 10uM” value is -6.39%.

Take `COc1ccc2c(c1)[nH]c1c(=O)n(CC3CCCO3)cnc12` (stereo not shown): the “hERG current change (%, negative = inhibition) at 10uM” value was 11.1%.

Turning to `CCc1ccccc1NC(=O)CN(C)C(=O)c1cccc(S(=O)(=O)N2CCCCCC2)c1`, the “hERG current change (%, negative = inhibition) at 10uM” value is -25%.
